Experimental data: PubChem BioAssay AID485294 (National Center for Advancing Translational Sciences (NCATS), 2010)
Hit rate of the full screen: of about 370,000 compounds, about 150 (0.041%) were called active. Inconclusive results, whose numbers are uncertain, are shown with a selection of clear calls. Calls come from the whole dose curve; as a rule, active = well fitted inhibition curve with a large enough effect; inconclusive = small, poorly fitted or top-dose-only effect; inactive = flat fitted curve, though single readings scatter. Potencies of inconclusive entries are left out as doubtful fits.

target: Beta-lactamase (Escherichia coli (strain K12)) (UniProt P00811); assay: qHTS Inhibitors of AmpC Beta-Lactamase (assay with detergent); conditions: AmpC hydrolysis of nitrocefin, absorbance 480 nm, 0.01% Triton; activity change, negative = inhibition: at 114 µM (top of the series); note: nearly all actives have a fitted effect of over 25% in size;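 for activity change, negative = inhibition: 0% = no-compound wells and -100% = no-enzyme wells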
Chain of UniProt P00811 (P00811 whole entry, looked up): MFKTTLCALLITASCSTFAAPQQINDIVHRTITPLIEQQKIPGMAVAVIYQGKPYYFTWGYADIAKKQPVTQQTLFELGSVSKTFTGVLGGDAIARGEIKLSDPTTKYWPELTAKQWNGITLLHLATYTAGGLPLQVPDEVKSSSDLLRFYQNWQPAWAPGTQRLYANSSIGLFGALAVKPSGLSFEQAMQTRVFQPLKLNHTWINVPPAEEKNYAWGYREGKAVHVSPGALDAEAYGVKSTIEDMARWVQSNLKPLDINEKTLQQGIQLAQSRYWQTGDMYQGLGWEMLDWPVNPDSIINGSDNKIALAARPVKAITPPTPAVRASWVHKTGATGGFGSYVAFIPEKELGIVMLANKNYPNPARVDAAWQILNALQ
How it was run: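 AmpC (5.3 nM in the dispensed reagent) in 20 mM phosphate pH 7.0 with 0.01% (detergent screen) or 0.0001% Triton X-100 was preincubated with compounds for 15 min at room temperature. Nitrocefin was then added from an 800 uM solution, and hydrolysis was followed at 480 nm.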
Potency is the fitted concentration of half-maximal effect; tags give direction and shape of the fitted curve.

SMILES | Potency | activity change, negative = inhibition
COc1ccc(NC(=O)c2ccc(OC(F)F)cc2)cc1Cl | inconclusive [inhibitor, partial curve] | 
O=C(Nc1ccc(O)c(-c2nc3ccccc3s2)c1)C1=COCCO1 |  | inactive: -2.78%
O=C(CSc1nccc(=O)[nH]1)N1c2ccccc2CCc2ccccc21 | inconclusive [inhibitor, partial curve, poor fit] | 
COc1ccc(C=C(c2nc3ccccc3s2)c2nc3ccccc3s2)cc1O | inconclusive [inhibitor, full curve] | 
CCOC(=O)c1c(NC(=O)CC2Sc3ccc(C(F)(F)F)cc3NC2=O)sc(C)c1C (stereo unspecified) | inconclusive [inhibitor, full curve] | 
O=C(C1CCCO1)N1CCN(S(=O)(=O)c2cccc3nsnc23)CC1 (stereo unspecified) | inconclusive [inhibitor, partial curve, poor fit] | 
CC(NCC(=O)Nc1cc(S(=O)(=O)N2CCOCC2)ccc1Cl)c1ccc(Cl)cc1Cl (stereo unspecified) | inconclusive [inhibitor, full curve, poor fit] | 
COc1ccc(C=O)cc1COc1c(F)c(F)cc(F)c1F | inconclusive [inhibitor, full curve, poor fit] | 
CCc1ccc(NC(=O)Cn2ncc3c4ccccc4n(C)c3c2=O)cc1 | inactive | 
COc1ccc(NC(=O)/C(C#N)=C/c2cc(C)n(-c3ccc(N4CCOCC4)c([N+](=O)[O-])c3)c2C)cc1 |  | inactive: -0.12%
Cc1nn(Cc2ccccc2Cl)c(C)c1C(=O)NCC(c1cccs1)N1CCOCC1 (stereo unspecified) | inconclusive [inhibitor, partial curve, poor fit] | 
COc1cc2[nH]c(=S)n(Cc3ccc(C)cc3)c(=O)c2cc1OC | inconclusive [inhibitor, single point] | 
CCOC(=O)c1scc(-c2ccc(C)cc2)c1S(=O)(=O)Nc1cc(Cl)ccc1OC |  | inactive: 22.2%
Cc1ccc(S(=O)(=O)Nc2ccc3c(c2)CCC3)cc1 | inconclusive [inhibitor, partial curve, poor fit] | 
C=CCn1c(=S)[nH]c2scc(-c3ccc(C)o3)c2c1=O | inconclusive [inhibitor, partial curve] | 
O=C(NCCN1CCCCCC1)c1ccc(CS(=O)(=O)c2ccc(Br)cc2)o1 | inconclusive [inhibitor, full curve, poor fit] | 
Cc1cccc2sc(N(CCN(C)C)C(=O)C3CCN(S(=O)(=O)c4cccs4)CC3)nc12 |  | inactive: -12.2%
NC(=O)CC(NC(=O)c1ccc(Br)cc1)c1ccc(NC2CCCCCCC2)c([N+](=O)[O-])c1 (stereo unspecified) |  | inactive: -8.48%
COc1ccc(S(=O)(=O)NCc2cc(-c3ccccc3Cl)no2)cc1 | inconclusive [inhibitor, partial curve, poor fit] | 
Cn1nc([N+](=O)[O-])nc1Oc1ccccc1C(=O)N1CCOCC1 | inconclusive [inhibitor, single point] | 
O=C(O)C(Cc1ccccc1)Nc1ccc([N+](=O)[O-])cc1[N+](=O)[O-] (stereo unspecified) |  | inactive: -14.9%

SMILES | Potency | activity change, negative = inhibition
O=c1[nH]c(Nc2nc3ccccc3o2)nc2c1CCCC2 | inconclusive [inhibitor, single point] | 
O=C(Cc1ccccc1)Nc1ccc(CN2CCOCC2)cc1 | inconclusive [inhibitor, single point] | 
Cc1ccn2c(=O)nc(SCC(=O)N3N=C(c4cccs4)CC3c3ccc(F)cc3)nc2c1 (stereo unspecified) | inconclusive [inhibitor, partial curve, poor fit] | 
CSC1=NCCN1C(=O)c1ccc(S(=O)(=O)N2CCOCC2)cc1 | inconclusive [inhibitor, full curve, poor fit] | 
O=C(CCCSc1nc2ccccc2c(=O)[nH]1)c1ccccc1 |  | inactive: 1.54%
Cn1c(SCc2ccccc2Cl)nc2c1c(=O)[nH]c(=O)n2C | inconclusive [inhibitor, partial curve, poor fit] | 
CCOc1ccc(CNC(=O)C2CCCN(S(=O)(=O)c3ccc4c(c3)CCCC(=O)N4)C2)cc1 (stereo unspecified) |  | inactive: 19%
Cc1cccc(C)c1NC(=O)CSc1nnc(C)n1-c1ccccc1 | inconclusive [inhibitor, partial curve, poor fit] | 
CCn1cc(C(=O)N[C@@H](C)C(=O)NCCCN2CCOCC2)c(=O)c2cc3c(cc21)OCO3 |  | inactive: 2.66%
CCOC(=O)c1c(CN2CCCCC2)n(C)c2ccc(OC)c(S(=O)(=O)c3ccccc3)c12 | inconclusive [inhibitor, full curve] | 
CC1(C)OC(C)(C)/C(=C/Nc2ccc(O)cc2)C1=O | inconclusive [inhibitor, partial curve] | 
CN(C)CCCN(C(=O)C1COc2ccccc2O1)c1nc2cc3c(cc2s1)OCO3 (stereo unspecified) | inconclusive [inhibitor, full curve, poor fit] | 
COc1cccc(NC(=O)C(=O)NCCC2CCCCN2S(=O)(=O)c2cccs2)c1 (stereo unspecified) | inconclusive [inhibitor, single point] | 
C=CC(=O)Nc1sc2c(c1C(N)=O)CCCC2 | inconclusive [inhibitor, partial curve] | 
COc1ccccc1C(=O)NC1(C(F)(F)F)C(=O)Nc2c1c(=O)[nH]c(=O)n2CCc1ccccc1 (stereo unspecified) |  | inactive: 21.1%
Cc1c(NC(=O)CN2C(=O)NC(C)(c3ccccc3Cl)C2=O)c(=O)n(-c2ccccc2)n1C (stereo unspecified) | inconclusive [inhibitor, single point] | 
Cc1nc2ncc(Br)cc2[nH]1 | inconclusive [inhibitor, single point] | 
COc1ccc(CNC(=O)c2nnn(CC(=O)Nc3cc(C)cc(C)c3)c2N)cc1 | inconclusive [inhibitor, full curve, poor fit] | 
Cn1cnnc1SCC(=O)Nc1ccc(OC(F)F)cc1 | inconclusive [inhibitor, partial curve] | 
CCCn1c(SCC(O)c2cccc(OC)c2)nc2ccccc21 (stereo unspecified) |  | inactive: 4.87%
